From the CheMixHub ionic liquid set
“And” between values parts separate entries of the source, which are not always exact repeats. Equal values may be shown once. Further values from the same series stand in other lists.

Test: xn = mol fraction of the nth substance listed
Conditions: 101 kPa

CCCCCCCCCCCCOS(=O)(=O)[O-].[Na+] + O
Conditions | electrical conductivity
308.15 K, x1 = 0.0001642 | 0.07226 S/m
308.15 K, x1 = 0.0001699 | 0.0729 S/m
308.15 K, x1 = 0.0001757 | 0.0742 S/m
308.15 K, x1 = 0.0001795 | 0.07536 S/m
308.15 K, x1 = 0.0001814 | 0.0753 S/m
308.15 K, x1 = 0.000187 | 0.0764 S/m
308.15 K, x1 = 0.0001928 | 0.0775 S/m
308.15 K, x1 = 0.0001979 | 0.07879 S/m
308.15 K, x1 = 0.0001982 | 0.0785 S/m
308.15 K, x1 = 0.0002038 | 0.0796 S/m
308.15 K, x1 = 0.0002092 | 0.0805 S/m
308.15 K, x1 = 0.0002147 | 0.0815 S/m
308.15 K, x1 = 0.00022 | 0.0824 S/m
308.15 K, x1 = 0.0002201 | 0.08275 S/m
308.15 K, x1 = 0.0002254 | 0.0834 S/m
308.15 K, x1 = 0.0002306 | 0.0843 S/m
308.15 K, x1 = 0.0002311 | 0.08468 S/m
308.15 K, x1 = 0.0002358 | 0.0852 S/m
308.15 K, x1 = 0.0002411 | 0.0861 S/m
308.15 K, x1 = 0.000243 | 0.08671 S/m
308.15 K, x1 = 0.0002463 | 0.087 S/m
308.15 K, x1 = 0.000256 | 0.08886 S/m
308.15 K, x1 = 0.0002705 | 0.09132 S/m
308.15 K, x1 = 0.0002866 | 0.09421 S/m
313.15 K, x1 = 6.692e-05 | 0.03438 S/m
313.15 K, x1 = 7.15e-05 | 0.03662 S/m
313.15 K, x1 = 7.683e-05 | 0.0396 S/m
313.15 K, x1 = 8.33e-05 | 0.0428 S/m
313.15 K, x1 = 9.132e-05 | 0.04664 S/m
313.15 K, x1 = 0.0001008 | 0.05133 S/m
313.15 K, x1 = 0.0001062 | 0.054 S/m
313.15 K, x1 = 0.0001123 | 0.05698 S/m
313.15 K, x1 = 0.0001191 | 0.06029 S/m
313.15 K, x1 = 0.0001264 | 0.06402 S/m
313.15 K, x1 = 0.0001355 | 0.06829 S/m
313.15 K, x1 = 0.000145 | 0.07309 S/m
313.15 K, x1 = 0.0001565 | 0.07799 S/m
313.15 K, x1 = 0.0001702 | 0.08184 S/m
313.15 K, x1 = 0.0001863 | 0.08548 S/m
313.15 K, x1 = 0.0002054 | 0.08933 S/m
313.15 K, x1 = 0.0002291 | 0.09414 S/m
313.15 K, x1 = 0.0002402 | 0.09639 S/m
313.15 K, x1 = 0.0002532 | 0.09885 S/m
313.15 K, x1 = 0.0002666 | 0.1014 S/m
313.15 K, x1 = 0.0002823 | 0.1045 S/m
313.15 K, x1 = 0.0002987 | 0.1077 S/m
318.15 K, x1 = 7.35e-06 | 0.0057 S/m
318.15 K, x1 = 1.463e-05 | 0.00954 S/m
318.15 K, x1 = 2.184e-05 | 0.0133 S/m
318.15 K, x1 = 2.898e-05 | 0.017 S/m
318.15 K, x1 = 3.604e-05 | 0.0208 S/m
318.15 K, x1 = 4.303e-05 | 0.0244 S/m
318.15 K, x1 = 4.997e-05 | 0.0279 S/m
318.15 K, x1 = 5.683e-05 | 0.0313 S/m
318.15 K, x1 = 6.689e-05 | 0.03767 S/m
318.15 K, x1 = 7.036e-05 | 0.0381 S/m
318.15 K, x1 = 7.144e-05 | 0.04034 S/m
318.15 K, x1 = 7.703e-05 | 0.0414 S/m
318.15 K, x1 = 7.716e-05 | 0.04354 S/m
318.15 K, x1 = 8.364e-05 | 0.0471 S/m and 0.0448 S/m
318.15 K, x1 = 9.164e-05 | 0.05132 S/m
318.15 K, x1 = 9.658e-05 | 0.0513 S/m
318.15 K, x1 = 0.0001012 | 0.05655 S/m
318.15 K, x1 = 0.0001031 | 0.0543 S/m
318.15 K, x1 = 0.0001065 | 0.05953 S/m
318.15 K, x1 = 0.0001094 | 0.0573 S/m
318.15 K, x1 = 0.0001126 | 0.06273 S/m
318.15 K, x1 = 0.0001157 | 0.0602 S/m
318.15 K, x1 = 0.0001194 | 0.06646 S/m
318.15 K, x1 = 0.000122 | 0.0632 S/m
318.15 K, x1 = 0.0001271 | 0.07062 S/m
318.15 K, x1 = 0.0001281 | 0.0659 S/m
318.15 K, x1 = 0.0001342 | 0.0687 S/m
318.15 K, x1 = 0.0001354 | 0.07531 S/m
318.15 K, x1 = 0.0001404 | 0.0711 S/m
318.15 K, x1 = 0.0001454 | 0.08075 S/m
318.15 K, x1 = 0.0001465 | 0.0734 S/m
318.15 K, x1 = 0.0001524 | 0.0755 S/m
318.15 K, x1 = 0.0001575 | 0.0864 S/m
318.15 K, x1 = 0.0001584 | 0.0774 S/m
318.15 K, x1 = 0.0001641 | 0.079 S/m
318.15 K, x1 = 0.0001699 | 0.0805 S/m
318.15 K, x1 = 0.0001709 | 0.09131 S/m
318.15 K, x1 = 0.0001757 | 0.0819 S/m
318.15 K, x1 = 0.0001814 | 0.0832 S/m
318.15 K, x1 = 0.0001869 | 0.09558 S/m
318.15 K, x1 = 0.000187 | 0.0845 S/m
318.15 K, x1 = 0.0001928 | 0.0857 S/m
318.15 K, x1 = 0.0001982 | 0.0868 S/m
318.15 K, x1 = 0.0002038 | 0.0879 S/m
318.15 K, x1 = 0.0002068 | 0.1003 S/m
318.15 K, x1 = 0.0002092 | 0.089 S/m
318.15 K, x1 = 0.0002147 | 0.0902 S/m
318.15 K, x1 = 0.00022 | 0.0912 S/m
318.15 K, x1 = 0.0002254 | 0.0924 S/m
318.15 K, x1 = 0.0002306 | 0.0936 S/m
318.15 K, x1 = 0.0002313 | 0.1057 S/m
318.15 K, x1 = 0.0002358 | 0.0946 S/m
318.15 K, x1 = 0.0002411 | 0.0956 S/m
318.15 K, x1 = 0.0002424 | 0.1083 S/m
318.15 K, x1 = 0.0002463 | 0.0966 S/m
318.15 K, x1 = 0.000255 | 0.1112 S/m
318.15 K, x1 = 0.0002683 | 0.1143 S/m
318.15 K, x1 = 0.0002836 | 0.1177 S/m
318.15 K, x1 = 0.0003016 | 0.1214 S/m
323.15 K, x1 = 6.341e-05 | 0.03905 S/m
323.15 K, x1 = 6.876e-05 | 0.04172 S/m
323.15 K, x1 = 7.37e-05 | 0.04513 S/m
323.15 K, x1 = 8.016e-05 | 0.04865 S/m
323.15 K, x1 = 8.779e-05 | 0.05323 S/m
323.15 K, x1 = 9.654e-05 | 0.05877 S/m
323.15 K, x1 = 0.0001019 | 0.06187 S/m
323.15 K, x1 = 0.0001083 | 0.06549 S/m
323.15 K, x1 = 0.0001148 | 0.06933 S/m
323.15 K, x1 = 0.0001224 | 0.07359 S/m
323.15 K, x1 = 0.0001308 | 0.07849 S/m
323.15 K, x1 = 0.0001407 | 0.08446 S/m
323.15 K, x1 = 0.0001513 | 0.09097 S/m
323.15 K, x1 = 0.0001658 | 0.098 S/m
323.15 K, x1 = 0.0001819 | 0.1043 S/m
323.15 K, x1 = 0.0002013 | 0.1099 S/m
323.15 K, x1 = 0.0002254 | 0.1163 S/m
323.15 K, x1 = 0.0002372 | 0.1191 S/m
323.15 K, x1 = 0.0002502 | 0.1226 S/m
323.15 K, x1 = 0.0002644 | 0.1259 S/m
323.15 K, x1 = 0.00028 | 0.1297 S/m
323.15 K, x1 = 0.000298 | 0.134 S/m
328.15 K, x1 = 6.795e-05 | 0.04512 S/m
328.15 K, x1 = 7.251e-05 | 0.04843 S/m
328.15 K, x1 = 7.822e-05 | 0.05216 S/m
328.15 K, x1 = 8.507e-05 | 0.05642 S/m
328.15 K, x1 = 9.305e-05 | 0.06154 S/m
328.15 K, x1 = 0.0001022 | 0.06761 S/m
328.15 K, x1 = 0.0001079 | 0.07113 S/m
328.15 K, x1 = 0.0001136 | 0.07507 S/m
328.15 K, x1 = 0.0001208 | 0.07955 S/m
328.15 K, x1 = 0.0001284 | 0.08434 S/m
328.15 K, x1 = 0.0001372 | 0.08978 S/m
328.15 K, x1 = 0.0001471 | 0.09628 S/m
328.15 K, x1 = 0.0001589 | 0.1035 S/m
328.15 K, x1 = 0.0001722 | 0.1112 S/m
328.15 K, x1 = 0.0001882 | 0.1178 S/m
328.15 K, x1 = 0.0002077 | 0.1243 S/m
328.15 K, x1 = 0.0002314 | 0.1312 S/m
328.15 K, x1 = 0.0002428 | 0.1344 S/m
328.15 K, x1 = 0.0002554 | 0.1379 S/m
328.15 K, x1 = 0.0002688 | 0.1416 S/m
328.15 K, x1 = 0.0002841 | 0.1457 S/m
328.15 K, x1 = 0.0003016 | 0.1501 S/m
